Source: PubChem BioAssay AID686992 (Broad Institute, 2013)
Out of some 260,000 compounds screened, about 960 (0.37%) were called active. Inconclusive results, whose numbers are uncertain, are shown with a selection of clear calls.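 How the source made its calls: active means mean E-selectin-positive cell signal at least 10% of the positive control, reached in at least 60% of replicates, without over 20% cell loss; inconclusive means no rule given, readout overlaps actives, possibly toxicity-flagged; inactive means the rest, including those meeting only one limit.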

These compounds were tested against E-selectin (Homo sapiens) (UniProt P16581) (assay: inducers of endothelial E-selectin expression – imaging, HUVEC, immunofluorescence imaging, single point, primary screen (AID 686992;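 further: signal is the percent of cells scored E-selectin positive by PE staining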)). Conditions: at 7.58 µM, stronger effect = higher value, normalized: neutral wells 0, TNF-alpha wells 100.
Procedure, shortened: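 Test system: HUVEC | Signal: Immunofluorescence imaging | Read-out: Percent E-selectin-positive cells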

Chain of UniProt P16581 (P16581 whole entry, looked up): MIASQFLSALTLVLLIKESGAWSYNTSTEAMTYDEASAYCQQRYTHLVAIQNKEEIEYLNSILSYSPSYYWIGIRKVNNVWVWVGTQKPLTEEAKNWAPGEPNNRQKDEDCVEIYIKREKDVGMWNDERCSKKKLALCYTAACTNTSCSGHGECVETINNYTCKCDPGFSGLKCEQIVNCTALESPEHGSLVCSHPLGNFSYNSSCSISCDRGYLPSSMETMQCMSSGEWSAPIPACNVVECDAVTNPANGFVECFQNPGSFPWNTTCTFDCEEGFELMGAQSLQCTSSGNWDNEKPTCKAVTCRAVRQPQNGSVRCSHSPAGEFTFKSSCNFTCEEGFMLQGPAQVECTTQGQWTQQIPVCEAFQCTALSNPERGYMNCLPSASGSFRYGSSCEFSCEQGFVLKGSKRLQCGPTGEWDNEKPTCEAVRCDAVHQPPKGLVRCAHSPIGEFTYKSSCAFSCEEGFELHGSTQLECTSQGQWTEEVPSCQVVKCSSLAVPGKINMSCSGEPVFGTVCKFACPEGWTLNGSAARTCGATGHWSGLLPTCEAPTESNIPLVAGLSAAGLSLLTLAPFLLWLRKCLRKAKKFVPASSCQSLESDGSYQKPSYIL

Row | Compound | activation
1 | CC(C)c1cn(CC[C@H]2CC[C@H](NC(=O)c3cccc(F)c3)[C@H](CO)O2)nn1 | inactive: -0.491%
2 | COc1ccc(CN2CCN(C(=O)c3ccccc3C(=O)c3ccccc3)CC2)cc1OC | inconclusive: 139%
3 | COc1ccc(/C=N/NC(=O)c2ccc(NC(=O)C3CCCCC3)cc2)cc1O | inconclusive: 27.7%
4 | Cc1ccccc1Nc1nc(-c2ccccc2)c(C(=O)Nc2cccnc2)s1 | inconclusive: 43.5%
5 | COc1ccc(NC(=O)N(C)C[C@@H]2OCCCC[C@H](C)Oc3ccc(NS(=O)(=O)c4ccc(Cl)cc4)cc3C(=O)N([C@H](C)CO)C[C@@H]2C)cc1 | inactive: 1.41%
6 | O=Cc1cn(-c2ccccc2)nc1-c1ccccn1 | active: 31.7%
7 | CCOc1ccc(CN2CCN(CCCn3cccn3)CC2CCO)cc1 (centres undefined) | inconclusive: 61.3%
8 | CCCOc1ccc(C(=O)OCCN2CCCCC2)c(O)c1 | inactive: 12.9%
9 | CCS(=O)(=O)c1nc(S(=O)(=O)c2ccc(C)cc2)c(N2CCC3(CC2)OCCO3)s1 | inconclusive: 51.6%
10 | Cc1noc(C)c1NC(=O)N(C)C[C@@H]1Oc2ccc(NS(=O)(=O)c3ccc(Cl)cc3)cc2CC(=O)N([C@@H](C)CO)C[C@H]1C | inactive: -0.115%
11 | COc1ccc(S(=O)(=O)N(C)C[C@H]2Oc3ccc(NC(=O)Nc4c(C)noc4C)cc3C(=O)N([C@@H](C)CO)C[C@@H]2C)cc1 | active: 43.2%
12 | C[C@H]1CN([C@@H](C)CO)C(=O)Cc2cc(NC(=O)c3ccncc3)ccc2O[C@H]1CN(C)C(=O)Nc1ccc(C(F)(F)F)cc1 | active: 32.9%
13 | COC(=O)c1ccccc1NC(=O)c1cc(C)no1 | inconclusive: 29.5%
14 | CSc1ccc(/C=N/NC(=O)c2ccc3nc[nH]c3c2)cc1 | active: 40.5%
15 | OC(c1ccc(Cl)c(F)c1)c1ncc(-c2ccc(Cl)cc2)[nH]1 (centres undefined) | inconclusive: 43.7%
16 | CC(=O)N(C)C[C@H]1Oc2cc(C#CC3CC3)ccc2S(=O)(=O)N([C@H](C)CO)C[C@H]1C | inconclusive: 39.7%
17 | COC(=O)c1sc2nc(SCC(=O)N(C)c3ccccc3)n(N)c(=O)c2c1C | active: 154%
18 | Cc1cc(C(=O)Nc2cccc3c2O[C@@H](CN(C)S(=O)(=O)c2ccc(F)cc2)[C@@H](C)CN([C@H](C)CO)C3=O)n(C)n1 | inconclusive: 76.2%
19 | CCNc1nc(NC(C)(C)C)nc(Oc2ccc(=O)n(-c3ccccc3)n2)n1 | active: 42.9%
20 | CC(C)(C)c1ccc(C(O)c2ncc(-c3ccccc3Cl)[nH]2)cc1 (centres undefined) | inconclusive: 51.8%
21 | C[C@@H]1CN([C@@H](C)CO)C(=O)c2cccc(NS(C)(=O)=O)c2O[C@H]1CN(C)C(=O)Nc1ccc(F)cc1 | inconclusive: 73.6%
22 | CN(C)/C=N/C1=C(C#N)C(c2ccc(Br)cc2)c2ccc3ccccc3c2O1 (centres undefined) | inconclusive: 35.6%
23 | O=[N+]([O-])c1ccc(N=Nc2ncc[nH]2)cc1 | active: 30.1%
24 | COC(=O)c1ccc(NC(=O)CNCc2ccncc2)cc1 | inconclusive: 31.3%
25 | COC(=O)c1ccc2nc(-c3ccc(C)cc3)c(Cc3ccccc3)n2c1 | inactive: 0.19%

Row | Compound | activation
26 | O=C1C=Cc2ccccc2/C1=C/c1[nH]c(=O)[nH]c1O | inconclusive: 62.8%
27 | COc1ccccc1/C=C(\C#N)C(=O)c1cccn1C | inconclusive: 46.3%
28 | CCc1ccc(CN(C)C(=O)CCc2nnc(COc3ccccc3)o2)cc1 | inconclusive: 52.3%
29 | COc1cc(CN2CC3(CN(C)C3)c3c([nH]c4cc(OC)ccc34)[C@@H]2CO)cc(OC)c1 | inactive: -0.354%
30 | C[C@H](CO)N1C[C@H](C)[C@@H](CN(C)C(=O)NC2CCCCC2)Oc2c(NC(=O)Nc3ccc(F)cc3)cccc2C1=O | active: 42.3%
31 | CN(/N=C/c1cc(Cl)cc(Cl)c1O)C(=S)NC(C)(C)C | active: 71%
32 | C[C@H](CO)N1C[C@H](C)[C@H](CN(C)CC2CC2)Oc2ccc(NC(=O)Cc3ccccc3)cc2CC1=O | inconclusive: 122%
33 | CCCCn1c(NCc2ccc(OC)cc2O)nc2ccccc21 | inconclusive: 39.6%
34 | CCOC(=O)/C(C#N)=C/c1c(Oc2cccc(C)c2)nc2ccccn2c1=O | inconclusive: 37.8%
35 | Cc1ccc(-c2cc(C(=O)N/N=C/c3ccccc3)n[nH]2)o1 | inconclusive: 32.9%
36 | CCCNC(=O)C[C@H]1C[C@@H]2c3cc(NS(C)(=O)=O)ccc3O[C@@H]2[C@H](CO)O1 | inactive: -0.118%
37 | CCN(CC)c1ccc(C(=O)Nn2cnc3ccccc3c2=O)cc1 | inconclusive: 32.5%
38 | O=C(c1ccccc1)N1CCN(c2ccccc2)CC1 | inactive: 0.0615%
39 | COc1ccc(NC(=O)CN(C)CC(=O)Nc2cccc(S(=O)(=O)N(C)c3ccccc3)c2)cc1 | inconclusive: 31.1%
40 | NC(=O)C1(N2CCCCC2)CCN(C(=S)Nc2cc(F)cc(F)c2)CC1 | inconclusive: 64.5%
41 | Nc1ccn([C@@H]2O[C@H](C(=O)N3CCN(CCO)CC3)[C@@H](O)[C@H]2O)c(=O)n1 | inconclusive: 68.5%
42 | C[C@@H]1CN([C@H](C)CO)C(=O)c2cc(C#CC3CCCCC3)cnc2O[C@@H]1CN(C)C(=O)Nc1ccccc1 | inactive: 4.21%
43 | C[C@H](CO)N1C[C@H](C)[C@H](CN(C)C(=O)NC2CCCCC2)Oc2ccc(NS(=O)(=O)c3ccccc3)cc2C1=O | active: 62.8%
44 | N#C[C@@H]1[C@H](c2ccccc2)[C@@H](CO)N1C(=O)C1CCCC1 | inconclusive: 35.9%
45 | Cc1ccc(S(=O)(=O)N(C)C[C@H]2Oc3ccc(NC(=O)C4CC4)cc3C(=O)N([C@@H](C)CO)C[C@H]2C)cc1 | inconclusive: 49.1%
46 | COc1ccc(S(=O)(=O)N(C)C[C@@H]2Oc3c(NC(=O)Nc4cccc5ccccc45)cccc3C(=O)N([C@H](C)CO)C[C@@H]2C)cc1 | inconclusive: 28%
47 | CCN1C(=O)N[C@@H](c2cccc(F)c2)C(C(C)=O)=C1C | inactive: 0.0655%
48 | COc1cccc(CNCc2cccc(OC)c2O)c1O | inconclusive: 68.9%
49 | COc1c(O[C@@H]2O[C@H](CO)[C@@H](O)[C@H](O)[C@H]2O)cc2c(c1OC)-c1ccc(SC)c(=O)cc1C(NC(C)=O)CC2 (some centres undefined) | inconclusive: 43.1%
